Some of the results follow.
Key:
Experiment in all cases: glycan array binding signal (z-score within array); higher = stronger binding
Conditions in all cases: glycan notation: IUPAC condensed, linker removed
[1] = target: Neu5Ac(a2-6)Gal(b1-4)GlcNAc(b1-3)[Neu5Ac(a2-6)Gal(b1-4)GlcNAc(b1-6)]GalNAc
Summary of the method: (§1)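 From the Consortium for Functional Glycomics database, 3228 arrays were curated, keeping only those whose protein sequence was available. Binding is given as a within-array Z-score averaged across arrays sharing a protein sequence and across linkers. Negative Z-scores can be read as non-binding.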

[2] = target: Neu5Ac(a2-6)Gal(b1-4)GlcNAc(b1-6)GalNAc
Summary of the method: as §1

[3] = target: Neu5Ac(a2-6)Gal(b1-4)GlcNAc(b1-6)[Gal(b1-3)GlcNAc(b1-3)]Gal(b1-4)Glc
Summary of the method: as §1

[4] = target: Neu5Ac(a2-6)Gal(b1-4)GlcNAc(b1-6)[Gal(b1-3)]GalNAc
Summary of the method: as §1

[5] = target: Neu5Ac(a2-6)Gal(b1-4)GlcNAc6S
Summary of the method: as §1

[6] = target: Neu5Ac(a2-6)GalNAc
Summary of the method: as §1

[7] = target: Neu5Ac(a2-6)GalNAc(b1-4)GlcNAc
Summary of the method: as §1

[8] = target: Neu5Ac(a2-6)GalNAc(b1-4)GlcNAc6S
Summary of the method: as §1

[9] = target: Neu5Ac(a2-6)GlcNAc(b1-4)GlcNAc
Summary of the method: as §1

[10] = target: Neu5Ac(a2-6)GlcNAc(b1-4)GlcNAc(b1-4)GlcNAc
Summary of the method: as §1

[11] = target: Neu5Ac(a2-8)Neu5Ac
Summary of the method: as §1

[12] = target: Neu5Ac(a2-8)Neu5Ac(a2-3)Gal(b1-3)GalNAc(b1-4)[Neu5Ac(a2-3)]Gal(b1-4)Glc
Summary of the method: as §1

[13] = target: Neu5Ac(a2-8)Neu5Ac(a2-3)Gal(b1-3)GalNAc(b1-4)[Neu5Ac(a2-8)Neu5Ac(a2-3)]Gal(b1-4)Glc
Summary of the method: as §1

[14] = target: Neu5Ac(a2-8)Neu5Ac(a2-3)Gal(b1-4)Glc
Summary of the method: as §1

[15] = target: Neu5Ac(a2-8)Neu5Ac(a2-3)Gal(b1-4)GlcNAc
Summary of the method: as §1

[16] = target: Neu5Ac(a2-8)Neu5Ac(a2-3)[Gal(b1-3)GalNAc(b1-4)]Gal(b1-4)Glc
Summary of the method: as §1

[17] = target: Neu5Ac(a2-8)Neu5Ac(a2-3)[GalNAc(b1-4)]Gal(b1-4)Glc
Summary of the method: as §1

[18] = target: Neu5Ac(a2-8)Neu5Ac(a2-8)Neu5Ac
Summary of the method: as §1

[19] = target: Neu5Ac(a2-8)Neu5Ac(a2-8)Neu5Ac(a2-3)Gal(b1-4)Glc
Summary of the method: as §1

[20] = target: Neu5Ac(a2-8)Neu5Ac(a2-8)Neu5Ac(a2-3)[Gal(b1-3)GalNAc(b1-4)]Gal(b1-4)Glc
Summary of the method: as §1

[21] = target: Neu5Ac(a2-8)Neu5Ac(a2-8)Neu5Ac(a2-3)[GalNAc(b1-4)]Gal(b1-4)Glc
Summary of the method: as §1

[22] = target: Neu5Ac(a2-8)Neu5Ac(a2-8)Neu5Ac(a2-8)Neu5Ac(a2-3)[GalNAc(b1-4)]Gal(b1-4)Glc
Summary of the method: as §1

[23] = target: Neu5Ac(a2-8)Neu5Gc(a2-3)Gal(b1-4)GlcNAc
Summary of the method: as §1

[24] = target: Neu5Ac(b1-6)GalNAc
Summary of the method: as §1

[25] = target: Neu5Ac(b2-6)Gal(b1-4)GlcNAc
Summary of the method: as §1

[26] = target: Neu5Ac(b2-6)GalNAc
Summary of the method: as §1

[27] = target: Neu5Ac9Ac(a2-3)Gal(b1-3)GlcNAc
Summary of the method: as §1

[28] = target: Neu5Ac9Ac(a2-3)Gal(b1-4)GlcNAc
Summary of the method: as §1

[29] = target: Neu5Ac9Ac(a2-6)Gal(b1-4)GlcNAc
Summary of the method: as §1

[30] = target: Neu5Gc(a2-3)Gal(b1-3)GlcNAc
Summary of the method: as §1

[31] = target: Neu5Gc(a2-3)Gal(b1-3)[Fuc(a1-4)]GlcNAc
Summary of the method: as §1

[32] = target: Neu5Gc(a2-3)Gal(b1-4)Glc
Summary of the method: as §1

[33] = target: Neu5Gc(a2-3)Gal(b1-4)GlcNAc
Summary of the method: as §1

[34] = target: Neu5Gc(a2-3)Gal(b1-4)GlcNAc(b1-3)Gal(b1-4)GlcNAc(b1-2)Man(a1-3)[Neu5Gc(a2-3)Gal(b1-4)GlcNAc(b1-3)Gal(b1-4)GlcNAc(b1-2)Man(a1-6)]Man(b1-4)GlcNAc(b1-4)GlcNAc
Summary of the method: as §1

[35] = target: Neu5Gc(a2-3)Gal(b1-4)[Fuc(a1-3)]GlcNAc
Summary of the method: as §1

[36] = target: Neu5Gc(a2-6)Gal(b1-4)GlcNAc
Summary of the method: as §1

[37] = target: Neu5Gc(a2-6)GalNAc
Summary of the method: as §1

[38] = target: Neu5Gc(a2-8)Neu5Ac(a2-3)Gal(b1-4)GlcNAc
Summary of the method: as §1

[39] = target: Neu5Gc(a2-8)Neu5Gc(a2-3)Gal(b1-4)GlcNAc
Summary of the method: as §1

[40] = target: Neu5Gc(a2-8)Neu5Gc(a2-3)Gal(b1-4)GlcNAc(b1-3)Gal(b1-4)GlcNAc
Summary of the method: as §1

[41] = target: Neu5Gc(a2-8)Neu5Gc(a2-6)Gal(b1-4)GlcNAc
Summary of the method: as §1

[42] = target: Neu5Gc(b2-6)Gal(b1-4)GlcNAc
Summary of the method: as §1

B1: ABA (Agaricus bisporus), Q00022 (protein)
chain: MTYTISIRVYQTTPKGFFRPVERTNWKYANGGTWDEVRGEYVLTMGGSGTSGSLRFVSSDTDESFVATFGVHNYKRWCDIVTNLTNEQTALVINQEYYGVPIRDQARENQLTSYNVANAKGRRFAIEYTVTEGDNLKANLIIG
- glycan array binding signal (z-score) [1]: -0.251
- glycan array binding signal (z-score) [2]: -0.068
- glycan array binding signal (z-score) [3]: -0.255
- glycan array binding signal (z-score) [4]: -0.075
- glycan array binding signal (z-score) [5]: -0.227
- glycan array binding signal (z-score) [6]: -0.271
- glycan array binding signal (z-score) [7]: -0.248
- glycan array binding signal (z-score) [8]: -0.274
- glycan array binding signal (z-score) [9]: -0.229
- glycan array binding signal (z-score) [10]: -0.257
- glycan array binding signal (z-score) [11]: -0.258
- glycan array binding signal (z-score) [12]: -0.282
- glycan array binding signal (z-score) [13]: -0.281
- glycan array binding signal (z-score) [14]: -0.267
- glycan array binding signal (z-score) [15]: -0.25
- glycan array binding signal (z-score) [16]: -0.223
- glycan array binding signal (z-score) [17]: -0.201
- glycan array binding signal (z-score) [18]: -0.247
- glycan array binding signal (z-score) [19]: -0.229
- glycan array binding signal (z-score) [20]: -0.245
- glycan array binding signal (z-score) [21]: -0.025
- glycan array binding signal (z-score) [22]: -0.206
- glycan array binding signal (z-score) [23]: -0.244
- glycan array binding signal (z-score) [24]: -0.191
- glycan array binding signal (z-score) [25]: -0.227
- glycan array binding signal (z-score) [26]: -0.29
- glycan array binding signal (z-score) [27]: -0.24
- glycan array binding signal (z-score) [28]: 0.53
- glycan array binding signal (z-score) [29]: -0.257
- glycan array binding signal (z-score) [30]: -0.212
- glycan array binding signal (z-score) [31]: -0.238
- glycan array binding signal (z-score) [32]: -0.232
- glycan array binding signal (z-score) [33]: -0.206
- glycan array binding signal (z-score) [34]: -0.152
- glycan array binding signal (z-score) [35]: -0.298
- glycan array binding signal (z-score) [36]: -0.229
- glycan array binding signal (z-score) [37]: -0.224
- glycan array binding signal (z-score) [38]: -0.228
- glycan array binding signal (z-score) [39]: -0.284
- glycan array binding signal (z-score) [40]: -0.226
- glycan array binding signal (z-score) [41]: -0.213
- glycan array binding signal (z-score) [42]: -0.256

Reference: the supplement of paper PMC8728848
